# Assay results reported in the BET-seq Pho4 binding data (Le et al. 2018).
# Some of the results follow. The energies were worked out here from pooled read counts, against the library average; single values are noisy.
# Biological target: T1, Pho4 (S. cerevisiae) (UniProt P07270)
# T1 sequence: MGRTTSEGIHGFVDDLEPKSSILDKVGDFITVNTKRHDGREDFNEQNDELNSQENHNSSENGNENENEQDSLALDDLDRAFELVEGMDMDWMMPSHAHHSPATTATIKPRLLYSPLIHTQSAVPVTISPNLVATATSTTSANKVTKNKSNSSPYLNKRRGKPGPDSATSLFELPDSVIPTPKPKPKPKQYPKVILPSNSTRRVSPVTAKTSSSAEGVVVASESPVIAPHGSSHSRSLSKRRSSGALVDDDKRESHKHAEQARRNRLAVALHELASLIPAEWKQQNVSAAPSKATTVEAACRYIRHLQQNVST
# Experiment: relative binding free energy (BET-seq); higher = weaker binding
# Conditions: reference: library average
row,Sequence,relative binding free energy [kcal/mol]
1,TTTGACACGTGTGTCT,-0.04
2,CAGTGCACGTGGGTCG,-0.1
3,GTGTTCACGTGGCGTT,0.17
4,GTGTGCACGTGCTGTA,-0.09
5,AAGTTCACGTGATGAT,0.36
6,TTGTGCACGTGAGCTG,0.21
7,ATCTGCACGTGCTGGT,0.06
8,CGTTGCACGTGCGGGG,-0.04
9,AAATACACGTGTGTAT,0.05
10,TGTAACACGTGAAGGT,0.26
11,CAAGGCACGTGTGTTA,-0.09
12,TGGGCCACGTGTTGTT,-0.15
13,GTATGCACGTGAGGAA,0.26
14,AGGCACACGTGCGGGG,-0.05
15,CGGTGCACGTGCGCGG,-0.17
16,GGTTTCACGTGGGTCC,0.37
17,TTTAACACGTGGGGGG,-0.14
18,AGATGCACGTGGCGTA,-0.1
19,ATTTACACGTGCTATT,0.02
20,GTAAGCACGTGCGTTA,-0.04
21,AGTTGCACGTGGCTTG,-0.06
22,TTTTACACGTGTTGTA,0.11
23,GAATACACGTGCGGTG,0.15
24,AGTAGCACGTGGAATG,-0.06
25,TGAGTCACGTGTCTTT,0.25
26,GTGTCCACGTGGTTTG,0.07

row,Sequence,relative binding free energy [kcal/mol]
1,CTAAGCACGTGTGAGG,-0.02
2,TGGAGCACGTGCAAGG,0.02
3,GTTAACACGTGGGTGA,-0.22
4,GTAGACACGTGGCAGT,0.03
5,GTTTACACGTGGAGTG,0.16
6,TTTATCACGTGCGTAT,0.19
7,ACGTGCACGTGGTTGT,-0.23
8,GGTTGCACGTGGCCTT,-0.11
9,GATGTCACGTGCATGT,0.05
10,TTTTCCACGTGTGGTT,0.09
11,TGCGGCACGTGGTTTT,-0.14
12,GGTCGCACGTGATAGT,0.22
13,GACAGCACGTGCGGTG,0.03
14,CAGGTCACGTGGTCGT,-0.1
15,TCGTGCACGTGACGTG,0.05
16,TTTGACACGTGGAAAT,0.06
17,GGATTCACGTGGGTAT,0.12
18,TAGTTCACGTGAACGG,0.36
19,TAAGGCACGTGGTAAG,-0.09
20,GAGTACACGTGAGGGA,0.39
21,TCTGTCACGTGGCAGG,0
22,AGGTTCACGTGGGTGC,0.19
23,GTGGTCACGTGTTGGC,0.15
24,GTAACCACGTGGGGTA,-0.24
25,CTCGTCACGTGCGGGT,0.05
26,TAAGACACGTGTTTGG,0.05

row,Sequence,relative binding free energy [kcal/mol]
1,GAGGTCACGTGCTGTT,0.16
2,ATCTGCACGTGTCGTG,-0.02
3,GGTTTCACGTGATGTC,0.39
4,CGGGGCACGTGTTGTC,0.01
5,CACGGCACGTGGTTGT,-0.09
6,TTTGGCACGTGAGGGT,0.22
7,TGCGTCACGTGATGGT,0.16
8,ATGTGCACGTGACTGT,0.09
9,GGGTACACGTGCTTTA,0.09
10,GGTTTCACGTGTACTG,0.18
11,ACTTGCACGTGGCGTT,-0.06
12,ACCTGCACGTGTTGGG,0.06
13,TAGGACACGTGTGAGA,0.13
14,TTGTGCACGTGTACGT,-0.02
15,TGGGTCACGTGATAAG,0.28
16,ATCGGCACGTGGAATG,-0.04
17,GTTGACACGTGCGGAT,0.16
18,GATTTCACGTGGTGGC,0.32
19,GTTTACACGTGGTGAT,0.13
20,TAGGGCACGTGGGCGT,-0.33
21,TCGTTCACGTGTTTCG,0.38
22,AAGAACACGTGTGGGA,-0.01
23,GAGTTCACGTGTTGTG,0.32
24,GTTTCCACGTGGGAGG,0
25,GACGGCACGTGGGCGA,-0.1
26,GTTGGCACGTGCTTTA,-0.15

row,Sequence,relative binding free energy [kcal/mol]
1,TTGAACACGTGTCTGT,0.02
2,AGGAGCACGTGTGTGG,-0.03
3,AGGTACACGTGAAGTA,0.22
4,TGTGTCACGTGATGGA,0.16
5,TGGCACACGTGGCGGT,0.05
6,TAAGACACGTGTCGGG,0.08
7,AGTGTCACGTGCATGG,0.13
8,AGGTGCACGTGTATGC,-0.02
9,GTAGGCACGTGTACGT,0.09
10,ATGGTCACGTGGCTAA,0.18
11,ATTTTCACGTGGTGTG,0.25
12,AATTGCACGTGGTGGT,-0.12
13,TAGGGCACGTGATTTC,0.02
14,GCGGGCACGTGATGTG,-0.02
15,GGAACCACGTGTTGTG,-0.01
16,ATTGTCACGTGGATAT,0.02
17,ACTGGCACGTGGGAGT,-0.23
18,AGGGCCACGTGGTTAA,-0.13
19,AGTTCCACGTGCAGGG,0.1
20,ATACGCACGTGCGTGT,-0.07
21,GTGAACACGTGGGTAG,-0.09
22,CATCGCACGTGGAGTG,0.03
23,AGAGTCACGTGATTGG,0.29
24,CCAGGCACGTGATGGG,-0.07
25,GGTGACACGTGGGACG,0.03
26,TCGTTCACGTGTGGAG,0.19

row,Sequence,relative binding free energy [kcal/mol]
1,ATAGGCACGTGGTGAT,-0.25
2,TTGAGCACGTGGATTG,-0.06
3,ATCGGCACGTGTTGTT,-0.02
4,GTGTTCACGTGAGCCG,0.42
5,CGGTTCACGTGGCGGC,0.28
6,CAGGTCACGTGCGTGC,0.19
7,TTATGCACGTGTGATG,0.09
8,GGGGTCACGTGTTGGT,0.22
9,AGTCGCACGTGGGTTA,-0.29
10,GTACTCACGTGGTAGG,0.18
11,GTTAGCACGTGAGTTG,0.23
12,AGTAACACGTGGATGA,0.01
13,GGTCTCACGTGAGATT,0.48
14,TGTTTCACGTGAAGTT,0.53
15,ATTTACACGTGCTTGG,-0.07
16,GCGGGCACGTGGTTTT,0
17,TAGAACACGTGGGGTC,-0.01
18,GGTGGCACGTGTCTAT,0.03
19,GGGGGCACGTGGCTGT,-0.17
20,TAGGTCACGTGCCGTG,-0.01
21,AGAGGCACGTGTTAGG,-0.03
22,AGGGACACGTGTGTCA,-0.05
23,ATTAGCACGTGATGCG,0
24,GTCTTCACGTGAGATT,0.36
25,AGTCGCACGTGTGTAT,0.11
26,TAATACACGTGGGTGG,-0.13

row,Sequence,relative binding free energy [kcal/mol]
1,GGTCGCACGTGAGTCG,0.22
2,GAAGGCACGTGGGTGC,-0.19
3,CTGTACACGTGGGTGG,-0.11
4,GAGTGCACGTGATGCT,0.25
5,AGTCTCACGTGGGCGT,-0.02
6,GGCTTCACGTGGGGTG,0.22
7,TTGAACACGTGGAGAT,0.01
8,CTGGTCACGTGTTGCT,0
9,TCAAGCACGTGGGTAT,-0.13
10,TCGGGCACGTGTGCAG,0
11,TTTTACACGTGTGCTA,0.1
12,TAAGTCACGTGGAGTA,0.07
13,TCAAGCACGTGATGTG,0.02
14,GTGGACACGTGGGACG,0.03
15,ATAATCACGTGATTAT,0.22
16,GGTATCACGTGGGTGT,0.04
17,CAGAACACGTGGGGTA,0.04
18,GGGAGCACGTGGGAAT,-0.12
19,ATTGACACGTGATGAA,0.29
20,AGGATCACGTGGGTCT,0
21,CTGTTCACGTGACAGT,0.33
22,TGTAGCACGTGCGGGG,-0.14
23,GGCCGCACGTGAGGGG,0.23
24,ATGGGCACGTGGCTCG,-0.01
25,GGGGTCACGTGTACTG,0.26
26,TTCGGCACGTGGTGGA,-0.16

row,Sequence,relative binding free energy [kcal/mol]
1,AGCGTCACGTGTTAAT,0.06
2,TTTTCCACGTGCAGGT,0.13
3,AGAGTCACGTGCGGGT,0.05
4,TTGGTCACGTGGGTCC,-0.06
5,GTTGACACGTGGGCTT,0.05
6,CGGGTCACGTGAGTGT,0.23
7,GTATGCACGTGGCCGT,-0.06
8,TACTGCACGTGTTTTG,0.01
9,GGTTGCACGTGATAAG,0.12
10,GGTATCACGTGGGATA,0.06
11,AGGAACACGTGTGAAT,0.18
12,TCTGGCACGTGTTCTG,0.08
13,TTGTCCACGTGGAATG,0.01
14,AGTTCCACGTGTGGTC,0.09
15,TATGTCACGTGAGACT,0.28
16,ATCCACACGTGTGGGG,0.19
17,GTGGACACGTGAGGCT,0.23
18,TTGTCCACGTGAAGGT,0.25
19,AGGGTCACGTGAGAGC,0.24
20,TTGGGCACGTGTACGA,-0.02
21,GGAGTCACGTGGTTTC,0.27
22,GAGGTCACGTGAGTGC,0.38
23,GAGTTCACGTGTTTCT,0.42
24,GTTAGCACGTGAGTGC,0.28
25,TTGATCACGTGCGTGG,-0.03
26,ACTGTCACGTGAAGTG,0.38

row,Sequence,relative binding free energy [kcal/mol]
1,GTTGACACGTGTTAAT,0.06
2,TACGGCACGTGTCGGG,-0.02
3,TCGTGCACGTGCGGTA,-0.01
4,GATAACACGTGTTTGG,0.15
5,GGCGGCACGTGAATGT,0.24
6,GTGTTCACGTGTCGGC,0.3
7,AGATGCACGTGATGTG,0.04
8,TCATGCACGTGTTGTA,0
9,GTATGCACGTGGGAGG,0
10,TAATTCACGTGTGTGC,0.38
11,AAAAGCACGTGGATGG,-0.1
12,GGGACCACGTGTGTGA,-0.03
13,GTGGGCACGTGTTCAT,-0.07
14,GTTTCCACGTGTAATT,0.34
15,CATTACACGTGGGTGG,-0.07
16,TTTGGCACGTGCTGGA,-0.1
17,TGGGTCACGTGTCGAG,0.17
18,TGGTGCACGTGACGTG,0.14
19,TCTAGCACGTGTGAGT,-0.1
20,GGATGCACGTGGATGG,0.01
21,TGTTTCACGTGAGCAC,0.59
22,CTATTCACGTGGGATG,0.12
23,GAAGTCACGTGAGGGT,0.35
24,GAGGTCACGTGTAGCA,0.19
25,TAGTGCACGTGTAAGA,0.13
26,TGCGGCACGTGGAGAT,-0.04

row,Sequence,relative binding free energy [kcal/mol]
1,TTTATCACGTGATCTA,0.24
2,TTAGACACGTGGCTTT,-0.11
3,TCTTTCACGTGTCGTA,0.27
4,TTGGGCACGTGGGAGT,-0.17
5,TCACGCACGTGGATGG,0.03
6,ATTTACACGTGCAGGT,0.27
7,AGGTGCACGTGATGTG,0.06
8,GGTTGCACGTGCTTAG,0.06
9,TTTAGCACGTGGCTGA,-0.22
10,TTCTTCACGTGCCGGT,0.29
11,GTGGGCACGTGTTTGC,0.02
12,AGTATCACGTGTGCGT,0.18
13,TGCGTCACGTGAGTGT,0.25
14,GTTGGCACGTGAGTAG,0.17
15,GTGGGCACGTGGCGTC,-0.1
16,GTGTTCACGTGGTTCG,0.4
17,GTTGCCACGTGAGGCG,0.2
18,TTGATCACGTGGCGTG,0.02
19,TCGCGCACGTGATGGG,-0.02
20,CAATCCACGTGTGTGT,0.3
21,TTCTTCACGTGGTTAA,0.26
22,TGGACCACGTGGGGCT,-0.22
